Test results: patent US10913712B2, “Tetracycline compounds” (Tetraphase Pharmaceuticals, Inc., priority 2012, dated 2021)

Legend:
[1] = test system: K. pneumoniae UNT023-1 (KPC producing strain); experiment: Mouse pneumonia study, 24 hour lung CFU counts; format: in vivo, Female CD-1 mice; settings: N. BO @ 2 and 12 hrs. post-infection; for Mean log10 CPU/pair Lung: 24 hour lung counts, neutropenic CD-1 mice
[2] = test system: K. pneumoniae UNT023-1 (KPC producing strain); experiment: MIC of the test articles of the mouse pneumonia study (Table 9); format: cell-based; settings: Klebsiella pneumoniae

CCN(C)[C@@H]1C(O)=C(C(N)=O)C(=O)[C@@]2(O)C(O)=C3C(=O)c4c(O)cc(C5CCCN5)c(C(F)(F)F)c4C[C@H]3C[C@@H]12 (single isomer, unassigned) [Compound S4-14-5-A]
Log10 change from 2 hr. Control ([1]; 15 mg/kg/dose): −0.83 Log10
Log10 change from 24 hr. Control ([1]; 40 mg/kg/dose): −2.51 Log10
Mean log10 CPU/pair Lung ([1]; 40 mg/kg/dose): 6.89 log10 CPU/pair Lung

CCN(CC)[C@@H]1C(O)=C(C(N)=O)C(=O)[C@@]2(O)C(O)=C3C(=O)c4c(O)cc(C5CCCN5)c(C(F)(F)F)c4C[C@H]3C[C@@H]12 (single isomer, unassigned) [Compound S4-14-14-A]
Log10 change from 2 hr. Control ([1]; 5 mg/kg/dose): 1.83 Log10
Mean log10 CPU/pair Lung ([1]; 5 mg/kg/dose): 8.18 log10 CPU/pair Lung
Mean log10 CPU/pair Lung ([1]; 15 mg/kg/dose): 8.71 log10 CPU/pair Lung
Mean log10 CPU/pair Lung ([1]; 40 mg/kg/dose): 8.32 log10 CPU/pair Lung

CCN(C)[C@@H]1C(O)=C(C(N)=O)C(=O)[C@@]2(O)C(O)=C3C(=O)c4c(O)cc5c(c4C[C@H]3C[C@@H]12)N(C)CC1CCN(C)C51 (single isomer, unassigned) [Compound S5-10-3-B]
MIC [2]: 0.125 µg/mL

CN(C)c1cc(NC(=O)CNC(C)(C)C)c(O)c2c1C[C@H]1C[C@H]3[C@H](N(C)C)C(O)=C(C(N)=O)C(=O)[C@@]3(O)C(O)=C1C2=O [Tigecycline, tigecycline]
Mean log10 CPU/pair Lung ([1]; 80 mg/kg/dose): 5.27 log10 CPU/pair Lung
